This is an account of results in the supplement of paper PMC10037445.

The subject of assay [1] is RAW-Dual. Put plainly: IRF Lucia reporter activity, fold change vs agonist alone; cytotoxicity flag (confluency mask): not cytotoxic; higher = enhanced IRF activity. The method, boiled down: (§1)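 Reporter activity is given as fold change relative to agonist-alone wells. To measure it, 50 nL of library stock was pin-tooled onto RAW-Dual macrophages (50,000 cells/well, DMEM, 384-well plates), a PRR agonist followed 1 h later, and cells stayed at 37 °C, 5% CO2. Twenty hours on, supernatant was assayed for IRF (QuantiLuc luminescence) and NF-κB (QuantiBlue, 620 nm absorbance), and wells under 70% of agonist-control IncuCyte confluency in both mask sets were marked cytotoxic.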

Assay [2] concerns RAW-Dual. Put plainly: IRF Lucia reporter activity, fold change vs agonist alone; higher = enhanced IRF activity. The settings on record: library stock concentration (final ~1000-fold dilution): 10 mM, agonist: MPLA (TLR4) […]. The method, boiled down: as §1
Assay [3] has as its system RAW-Dual. Put plainly: IRF Lucia reporter activity, fold change vs agonist alone; cytotoxicity flag (confluency mask): cytotoxic (confluency <70% of control); higher = enhanced IRF activity. The method, boiled down: as §1
[4] abbreviates: agonist: 3'3'-cGAMP (STING) 10 ug/mL.
The mark [5] stands for this setting: cytotoxicity flag (confluency mask): not cytotoxic.

Several values for one entry are separate records, joined by “and”; a condition that tells them apart may be missing. Identical values can stand only once. Over roughly 2,900 compounds, “IRF Lucia reporter activity, fold change vs agonist alone” has its median near 0.9; the highest 2% begin near 2.8. The list shows a part of the results.

As for `CCC(=O)NS(=O)(=O)c1ccc(-c2c(-c3ccccc3)noc2C)cc1` (library stock concentration (final ~1000-fold dilution): 10 mM), the “IRF Lucia reporter activity” value was 1.04 and 1.15 in the assay with RAW-Dual [1] (setting [4]); 1.27 and 1.36 in the assay with RAW-Dual [1] (agonist: LPS (TLR4) 0.1 ug/mL).

`CCOc1ccn(-c2ccc(F)cc2)c(=O)c1C(=O)Nc1ccc(Oc2ccnc(N)c2Cl)c(F)c1`: the “IRF Lucia reporter activity” value in the assay with RAW-Dual [2] (setting [5]) amounted to 0.502.

For the compound `CCOc1ccn(-c2ccc(F)cc2)c(=O)c1C(=O)Nc1ccc(Oc2ccnc(N)c2Cl)c(F)c1` (library stock concentration (final ~1000-fold dilution): 10 mM), the “IRF Lucia reporter activity” value in the assay on RAW-Dual [1] (setting [4]) came out at 0.391; in the assay with RAW-Dual [1] (agonist: LPS (TLR4) 0.1 ug/mL), 0.349.

On to `CCn1cc(-c2ccnc3[nH]c(-c4cccc(CN(C)C)c4)cc23)c(-c2ccc(NC(=O)N(C)C)cc2)n1`, for which the “IRF Lucia reporter activity” value in the assay on RAW-Dual [2] (setting [5]) was 0.427.

Take `CCn1cc(-c2ccnc3[nH]c(-c4cccc(CN(C)C)c4)cc23)c(-c2ccc(NC(=O)N(C)C)cc2)n1` (library stock concentration (final ~1000-fold dilution): 10 mM): the “IRF Lucia reporter activity” value was determined as 0.361 in the assay with RAW-Dual [1] (setting [4]) and 0.279 with RAW-Dual [1] (agonist: LPS (TLR4) 0.1 ug/mL).

`COCC(NC(=O)c1cnc(C)s1)C(=O)NC(COC)C(=O)NC(Cc1ccccc1)C(=O)C1(C)CO1` (stereo not given) (library stock concentration (final ~1000-fold dilution): 10 mM): the “IRF Lucia reporter activity” value with RAW-Dual [1] (setting [4]) is 0.763; with RAW-Dual [1] (agonist: LPS (TLR4) 0.1 ug/mL) it was 2.17.

With `COCC(NC(=O)c1cnc(C)s1)C(=O)NC(COC)C(=O)NC(Cc1ccccc1)C(=O)C1(C)CO1` (stereo not given), the “IRF Lucia reporter activity” value in the assay with RAW-Dual [2] (setting [5]) amounted to 2.33.

Regarding `Cc1cn(C2CC(N=[N+]=[N-])C(CO)O2)c(=O)[nH]c1=O` (stereo not given), the “IRF Lucia reporter activity” value in the assay with RAW-Dual [2] (setting [5]) came to 1.

Consider `Cc1cn(C2CC(N=[N+]=[N-])C(CO)O2)c(=O)[nH]c1=O` (stereo not given) (library stock concentration (final ~1000-fold dilution): 10 mM), for which the “IRF Lucia reporter activity” value came out at 0.923 in the assay with RAW-Dual [1] (setting [4]) and 0.82 with RAW-Dual [1] (agonist: LPS (TLR4) 0.1 ug/mL).

Regarding `OCc1ccc(-c2ccc(-c3ccc(CO)s3)o2)s1`, the “IRF Lucia reporter activity” value in the assay on RAW-Dual [2] (setting [5]) came out at 0.819.

With `OCc1ccc(-c2ccc(-c3ccc(CO)s3)o2)s1` (library stock concentration (final ~1000-fold dilution): 10 mM), the “IRF Lucia reporter activity” value with RAW-Dual [1] (setting [4]) is 0.684; in the assay with RAW-Dual [1] (agonist: LPS (TLR4) 0.1 ug/mL), 0.7.

Take `O=c1c(-c2ccc(O)cc2)coc2cc(O)cc(O)c12`: the “IRF Lucia reporter activity” value in the assay with RAW-Dual [2] (setting [5]) stood at 0.781.

In the case of `O=c1c(-c2ccc(O)cc2)coc2cc(O)cc(O)c12` (library stock concentration (final ~1000-fold dilution): 10 mM), the entries for the “IRF Lucia reporter activity” value with RAW-Dual [1] (setting [4]) and in the assay on RAW-Dual [1] (agonist: LPS (TLR4) 0.1 ug/mL) were 0.539 and 0.563, respectively.

As for `CCCCCCCCCCCCCC(=S)NCCCCC(NC(=O)OCc1ccccc1)C(=O)Nc1ccccc1` (stereo not given) (library stock concentration (final ~1000-fold dilution): 10 mM), the “IRF Lucia reporter activity” value in the assay on RAW-Dual [1] (setting [4]) came out at 0.949; in the assay on RAW-Dual [1] (agonist: LPS (TLR4) 0.1 ug/mL), 1.09.

As to `Nc1cc(O)nc(N)n1` (library stock concentration (final ~1000-fold dilution): 10 mM), the “IRF Lucia reporter activity” value in the assay on RAW-Dual [1] (setting [4]) came to 1.03; in the assay with RAW-Dual [1] (agonist: LPS (TLR4) 0.1 ug/mL), 0.921.

As to `Nc1cc(O)nc(N)n1`, in the assay on RAW-Dual [2] (setting [5]), the “IRF Lucia reporter activity” value worked out at 1.05.

For `O=C(O)c1ccc(Nc2ncc3c(n2)-c2ccc(Cl)cc2C(c2c(F)cccc2F)=NC3)cc1` (library stock concentration (final ~1000-fold dilution): 10 mM), the “IRF Lucia reporter activity” value in the assay with RAW-Dual [1] (setting [4]) was 1; in the assay on RAW-Dual [1] (agonist: LPS (TLR4) 0.1 ug/mL), 1.11.

In the case of `O=C(O)c1ccc(Nc2ncc3c(n2)-c2ccc(Cl)cc2C(c2c(F)cccc2F)=NC3)cc1`, in the assay with RAW-Dual [2] (setting [5]), the “IRF Lucia reporter activity” value was 1.15.

In the case of `Clc1cc2c(NC3CCCC3)nnc(-c3ccncc3)c2cc1Cl` (library stock concentration (final ~1000-fold dilution): 10 mM), the entries for the “IRF Lucia reporter activity” value in the assay on RAW-Dual [1] (setting [4]) and in the assay on RAW-Dual [1] (agonist: LPS (TLR4) 0.1 ug/mL) were 0.898 and 0.592, respectively.

Turning to `COc1cc2c(cc1OC)-c1cc3ccc(OC)c(OC)c3c[n+]1CC2` (library stock concentration (final ~1000-fold dilution): 10 mM), the “IRF Lucia reporter activity” value with RAW-Dual [1] (setting [4]) is 1.11 and 1.04; in the assay with RAW-Dual [1] (agonist: LPS (TLR4) 0.1 ug/mL) it was 0.76 and 0.898.

On to `Cc1ccc(S(=O)(=O)O)cc1.NC(=O)c1cccc2cn(-c3ccc(C4CCCNC4)cc3)nc12` (stereo not given) (library stock concentration (final ~1000-fold dilution): 10 mM), for which the “IRF Lucia reporter activity” value was determined as 0.336 in the assay on RAW-Dual [1] (setting [4]) and 0.527 in the assay on RAW-Dual [1] (agonist: LPS (TLR4) 0.1 ug/mL).

On to `C=CCc1ccc(O)c(-c2ccc(O)c(CC=C)c2)c1`, for which the “IRF Lucia reporter activity” value with RAW-Dual [2] (setting [5]) is 1.09.

On to `C=CCc1ccc(O)c(-c2ccc(O)c(CC=C)c2)c1` (library stock concentration (final ~1000-fold dilution): 10 mM), for which the “IRF Lucia reporter activity” value with RAW-Dual [1] (setting [4]) was 1.05; in the assay on RAW-Dual [1] (agonist: LPS (TLR4) 0.1 ug/mL), 0.767.

On to `CNC(=C[N+](=O)[O-])NCCSCc1ccc(CN(C)C)o1` (library stock concentration (final ~1000-fold dilution): 10 mM), for which the “IRF Lucia reporter activity” value is 1.08 and 1.07 in the assay on RAW-Dual [1] (setting [4]); 0.905 and 0.934 in the assay on RAW-Dual [1] (agonist: LPS (TLR4) 0.1 ug/mL).

Consider `N#CCC(C1CCCC1)n1cc(-c2ncnc3[nH]ccc23)cn1` (stereo not given) (library stock concentration (final ~1000-fold dilution): 10 mM), for which the “IRF Lucia reporter activity” value with RAW-Dual [1] (setting [4]) was 0.309 and 0.171 and 0.299.

Consider `CCOC(=O)/C=C/c1ccc(O)c(OC)c1` (library stock concentration (final ~1000-fold dilution): 10 mM), for which the “IRF Lucia reporter activity” value in the assay on RAW-Dual [1] (setting [4]) came to 0.301; in the assay on RAW-Dual [1] (agonist: LPS (TLR4) 0.1 ug/mL) it was 0.829.

Consider `Cc1[nH]c(/C=C2\C(=O)Nc3ccc(S(=O)(=O)Cc4c(Cl)cccc4Cl)cc32)c(C)c1C(=O)N1CCCC1CN1CCCC1` (stereo not given), for which, in the assay with RAW-Dual [2] (cytotoxicity flag (confluency mask): cytotoxic (confluency <70% of control)), the “IRF Lucia reporter activity” value was found to be 0.316.

For the compound `Cc1[nH]c(/C=C2\C(=O)Nc3ccc(S(=O)(=O)Cc4c(Cl)cccc4Cl)cc32)c(C)c1C(=O)N1CCCC1CN1CCCC1` (stereo not given) (library stock concentration (final ~1000-fold dilution): 10 mM), the “IRF Lucia reporter activity” value in the assay with RAW-Dual [3] (setting [4]) turned out to be 0.138; with RAW-Dual [3] (agonist: LPS (TLR4) 0.1 ug/mL), 0.23.
